{
  "source": "PubChem BioAssay AID463173",
  "about": "(ICCB-Longwood Screening Facility, Harvard Medical School, 2010)",
  "note": "The whole screen tested about 52,000 compounds, of which about 1,700 (3.3%) were called active. No stated cut-off is given here; in the data, active means survival mostly below about 52% (no sharp cut-off); inactive means mostly above about 56%. The list shows a part of the results.",
  "data": [
    {"test_system": "Wild type", "test": "S. aureus survival, RN4220 and DeltatarO strains – OD600, teichoic acid synthesis inhibitors, primary screen (AID 463173)", "details": "S. aureus RN4220 wild type/DeltatarO growth, OD600, 18 h, active compounds read low, screened at 18.75 µg/mL (by protocol)", "values": [
      {"smiles": "CCOC(=O)c1ccc(NC(=O)c2cc3c(n(-c4ccc(C)cc4)c2=O)CC(C)(C)CC3=O)cc1", "survival": "inactive: 134%"},
      {"smiles": "Cn1c(C(=O)N2CCC(C(=O)NCCc3ccc(S(N)(=O)=O)cc3)CC2)cc2sccc21", "survival": "inactive: 88%"},
      {"smiles": "Cc1ccc(CCNC(=O)c2ccc(CSCc3ccc(C)cc3)o2)cc1", "survival": "inactive: 65%"},
      {"smiles": "COc1cccc(NC(=O)N2CCN(c3nnnn3-c3ccccc3)CC2)c1", "survival": "inactive: 105%"},
      {"smiles": "Cc1ccc(NC(=O)CSc2nnc(C)c(=O)[nH]2)cc1", "survival": "inactive: 86%"},
      {"smiles": "CCc1ccc(NC(=O)Cn2c(=O)ccc3cc(S(=O)(=O)N4CCCC4)ccc32)cc1", "survival": "inactive: 148%"},
      {"smiles": "CCOC(=O)c1cccc(Nc2cc(C)nc(C)n2)c1", "survival": "inactive: 93%"},
      {"smiles": "Cc1noc(Cn2c(=O)c3ccccc3n(CC(=O)Nc3ccccc3C(F)(F)F)c2=O)n1", "survival": "inactive: 125%"},
      {"smiles": "Oc1ccc(Nc2nc(-c3ccc(Cl)cc3)nc3ccccc23)cc1", "survival": "active: 3%"},
      {"smiles": "Cc1nnc2c3ccccc3nc(N3CCN(c4cccc(Cl)c4)CC3)n12", "survival": "inactive: 90%"},
      {"smiles": "CCOCCCn1c(=N)c(C(=O)NC2CCCC2)cc2c(=O)n3cccc(C)c3nc21", "survival": "inactive: 67%"},
      {"smiles": "Cc1cccc(-n2ncc3c(Nc4c(C)cc(C)cc4C)ncnc32)c1", "survival": "inactive: 83%"},
      {"smiles": "CCc1ccc(NC(=O)c2ccc3c(c2)c(C)c(C)n3Cc2ccccc2)cc1", "survival": "inactive: 72%"},
      {"smiles": "CCCCOc1ccc(C2c3c(oc4ccccc4c3=O)C(=O)N2c2nc(C)c(C(=O)OCC)s2)cc1OC", "note": "(centres undefined)", "survival": "inactive: 69%"},
      {"smiles": "COc1ccccc1CNC(=O)CN1C(=O)CCCc2ccccc21", "survival": "inactive: 78%"},
      {"smiles": "CCc1ccc(NC(=O)c2oc3c(c2C)-c2[nH]ncc2CC3)cc1", "survival": "inactive: 59%"},
      {"smiles": "CC1(C)C(=O)NCCN1C(=O)CSc1nccc(-c2ccccc2)n1", "survival": "inactive: 106%"},
      {"smiles": "O=S(=O)(Nc1ccc(Br)cc1)c1ccc2nc(-c3ccccc3)[nH]c2c1", "survival": "active: -3%"},
      {"smiles": "Cc1ccc(CCNC(=O)CN2CCN(Cc3ccc(Cl)cc3)C2=O)cc1", "survival": "inactive: 76%"},
      {"smiles": "O=C(CCC1N=C2c3ccccc3N=C(SCc3cccc(F)c3)N2C1=O)NCc1ccc(F)cc1", "note": "(centres undefined)", "survival": "inactive: 68%"},
      {"smiles": "Cc1ccc(S(=O)(=O)Nc2ccc3c(c2)c(C(=O)OC(C)C)c(C)n3S(=O)(=O)c2ccc(C)cc2)cc1", "survival": "inactive: 105%"},
      {"smiles": "COc1ccc(S(=O)(=O)NCCc2cn3ccsc3n2)cc1", "survival": "inactive: 82%"},
      {"smiles": "CC(=O)c1ccc(NC(=O)c2ccc(CN3C(=O)CCn4nc(C)cc43)cc2)cc1", "survival": "inactive: 81%"},
      {"smiles": "CCc1ccc(NC(=O)Cn2nnc(C(=O)Nc3cc(C)ccc3OC)c2N)cc1", "survival": "inactive: 75%"}
    ]}
  ]
}
